# Measurements as given in PubChem BioAssay AID1240 (Sanford-Burnham Center for Chemical Genomics, 2008).
# Among all 50,000 compounds or so, about 800 (1.6%) showed an effect of 50% or more. The list shows a part of the results.
# Target: Bcl-2-like protein 10 (Homo sapiens) (UniProt Q9HD36)
# Assay: Phenotype converters, Bcl-B/TR3 peptide binding displacement, primary biochemical FP (AID 1240);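 note: 0% = Bcl-B with tracer peptide and DMSO and 100% = tracer peptide lacking Bcl-B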
# Conditions: GST-Bcl-B / FITC-TR3 peptide fluorescence polarization; stronger effect = higher value; compound at 3.75 mg/L
# UniProt Q9HD36, sequence (Q9HD36 whole entry, looked up): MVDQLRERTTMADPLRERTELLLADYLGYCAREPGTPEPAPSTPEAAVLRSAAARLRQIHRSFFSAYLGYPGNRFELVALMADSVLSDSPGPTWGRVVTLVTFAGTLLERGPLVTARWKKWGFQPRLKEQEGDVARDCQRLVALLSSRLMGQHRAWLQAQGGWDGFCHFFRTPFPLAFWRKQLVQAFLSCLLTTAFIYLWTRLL
row,Structure (SMILES),displacement
1,CCCC(=O)Nc1sc(C(=O)N(CC)CC)c(C)c1C(=O)OC,-2.1%
2,COc1ccc(NC(=O)c2c(NC(=O)c3ccco3)sc(-c3ccccc3)c2C)cc1,-7%
3,O=C1C=C(c2c(O)ccc3ccccc23)c2ccccc2C1=O,1%
4,CN1CCN(c2c([N+](=O)[O-])c(=O)n(C)c3ccccc23)CC1,-4.8%
5,Cc1cccc(C)c1OC(=O)c1ccc([N+](=O)[O-])cc1Cl,-3.6%
6,COC(=O)C[n+]1ccccc1CCC#N,12.6%
7,Cc1cc2c(cc1C)NC(CC(=O)Nc1ccc(Cl)cc1)C(=O)N2 (stereo unspecified),-87.1%
8,CCOC(=O)C1=C(C)N=c2s/c(=C\c3ccco3)c(=O)n2C1c1ccccc1OC (stereo unspecified),74.3%
9,CCOc1cc(/C=C2/SC(=S)N(CC)C2=O)ccc1OC(=O)c1cccc([N+](=O)[O-])c1,34.7%
10,COc1ccccc1NC(=O)/C(=C\c1ccco1)NC(=O)c1cccs1,-3.7%
11,O=c1oc2cc([N+](=O)[O-])ccc2nc1/C=C(\O)c1cccc(Br)c1,3%
12,COc1ccc(NC(=O)COc2cccc(C)c2C)c([N+](=O)[O-])c1,-14.7%
13,O=C(NC(c1ccccc1)c1ccccc1)c1ccc([N+](=O)[O-])cc1,11.2%
14,CC(=O)Nc1nc2ccccc2n1CCN(C)C,7.6%
15,CCCOc1ccc(C(=O)Nc2nc(-c3ccccc3)cs2)cc1,3.7%
16,COc1ccc(/C=C2\C(=O)NN(c3ccccc3)C2=O)cc1O,0.4%
17,C/C(Cn1nnc([N+](=O)[O-])n1)=N\NC(=O)c1ccc(O)cc1,12.3%
18,O=S(=O)(c1ccc(Cl)cc1)N1CCN(c2ccccn2)CC1,9%
19,Cc1nn(CC(=O)NCc2ccccc2)c(=O)c2ccccc12,-2.7%
20,CC(C)CC(=O)Nc1nc(-c2ccc3ccccc3c2)cs1,-7.4%
21,Cc1ccc(NCCC(=O)c2ccc(Cl)cc2)cc1,8.5%
22,O=C1C(=O)N(c2nncs2)C(c2ccc(F)cc2)/C1=C(\O)c1ccccc1 (stereo unspecified),13.6%
23,CC(C)N(C(=O)c1ccccc1F)C(C)C,1.3%
24,Cc1nc(/N=C(/N)NC(=O)c2ccccc2N)nc2ccccc12,5.3%

row,Structure (SMILES),displacement
1,CC(C)COc1ccc(Cc2c(O)nc(N)[nH]c2=O)cc1,-7.3%
2,CCOc1ccc(/C=N/NC(=O)c2ccccc2O)cc1,12.2%
3,CCOC(=O)C(=O)Nc1sc2c(c1C(=O)OCC)CC(C)(C)OC2,25.7%
4,COC(=O)c1sccc1NC(=O)c1cccc(Br)c1,19%
5,O=c1[nH]c2ccc(Nc3nc4ccccc4nc3NS(=O)(=O)c3ccc(Cl)cc3)cc2[nH]1,102%
6,Cn1c(SCC(=O)N/N=C/c2c(Cl)cccc2Cl)nc2ccccc21,-3.1%
7,CCOc1ccccc1C(=O)Nc1nc2ccc(C)cc2s1,9.1%
8,CS(=O)(=O)N(CC(=O)O)c1ccc(Br)cc1,5.6%
9,CN(C)c1ccc(/C=N/NC(=O)c2ccc(CN3CCOCC3)cc2)cc1Br,6.3%
10,CCCC1(O)CC(c2ccccc2)N(C)C(c2ccccc2)C1C (stereo unspecified),9.8%
11,Cc1ccccc1OCC(=O)Nc1cccc(NC(=O)c2ccccc2Cl)c1,0.1%
12,COc1ccccc1/C=N\NC(=O)c1cc(C(C)(C)C)[nH]n1,3.5%
13,O=C(/C=C/c1ccc([N+](=O)[O-])o1)c1ccc(I)cc1,12.7%
14,O=C(NCCO)C(=O)Nc1ccc(Cl)c(C(F)(F)F)c1,-4.6%
15,Cc1ccc(-c2cc3nc4c(c(=O)n3[nH]2)CCCC4)cc1,-5.3%
16,O=C(O)c1c(Br)c(Br)c(Br)c(Br)c1C(=O)N1CCCC1,-6.7%
17,CCOC(=O)c1c(NC(=O)Cc2ccc(Cl)cc2)sc(C(=O)Nc2ccc(OC)cc2OC)c1C,18.5%
18,CCCC(=O)Nc1ccc(N2CCN(C(C)=O)CC2)cc1,14.5%
19,O=C(Nc1cccc(Br)c1)c1ccc(N2C(=O)c3cccnc3C2=O)cc1,-13.9%
20,CC(=O)c1cccc(NC(=O)CC2S/C(=N\N=C\c3cccs3)NC2=O)c1 (stereo unspecified),-3.9%
21,Cc1no[n+]([O-])c1COc1ccc(/C=N/n2nnnc2N)cc1,12.4%
22,O=C(Nc1ccc2nn(-c3ccc(F)cc3)nc2c1)c1cc2ccccc2o1,2.5%
23,Cc1ccc(OCC(=O)N2CCc3ccccc3C2)c(Br)c1,-6.3%
24,COc1ccc(NC(=O)CCN2C(=O)/C(=C\c3ccc(C)cc3)SC2=S)cc1,7.1%

row,Structure (SMILES),displacement
1,CN(C)c1ccc(/C=N/Nc2nnc(-c3ccccc3)c(-c3ccccc3)n2)cc1,1.8%
2,C#CCSc1nc2c(cc1C#N)CCC2,-2%
3,[O-][n+]1onc2c1CCc1c-2nc(-c2ccccc2Cl)n1O,-3.5%
4,COc1cc2c(cc1OC)C(c1ccccc1)=NC1(CCCC1)C2,-1.6%
5,O=C1C(Cl)=C(Nc2ccccc2F)C(=O)N1c1ccc(Br)cc1,5.6%
6,COc1ccc2nc(SCC(=O)Nc3cccc(C(F)(F)F)c3)[nH]c2c1,5.8%
7,Cc1ccccc1OCC(=O)Nc1ccc(Cl)cc1Cl,1.9%
8,COc1ccccc1NC(=O)CSc1cc(Cl)ccc1Cl,17.5%
9,COc1cccc(N2C(=O)CC(N3CCC(C)CC3)C2=O)c1 (stereo unspecified),6.3%
10,CCCCOc1ccc2c(C(F)(F)F)cc(=O)oc2c1,-30.8%
11,CCN1C(=O)/C(=C\c2cc(OC)ccc2OC)SC1=S,14.3%
12,Cc1c(Br)c([N+](=O)[O-])nn1CC(=O)Nc1c(C)n(C)n(-c2ccccc2)c1=O,-4.9%
13,CCOc1cccc(-c2cc(C(=O)N3CCC(C)CC3)c3ccccc3n2)c1,-2.5%
14,CCOc1ccc(-n2nc3ccc(NC(=O)c4ccc(Cl)cc4)cc3n2)cc1,12.7%
15,CCN1C(=O)/C(=C/c2cccc(OC)c2OC)C(=O)NC1=S,1.8%
16,NC(=O)c1c(NC(=O)COc2ccccc2)sc2c1CCCCC2,14.4%
17,CC(Oc1cccc(Cl)c1)C(=O)Nc1ccccc1C(=O)N1CCN(C)CC1 (stereo unspecified),-4.9%
18,COc1ccc(-c2nnc(/C=C/c3ccccc3)o2)cc1,12.4%
19,COCCCNC(=O)CN(c1cccc(OC)c1)S(=O)(=O)c1ccccc1,15.1%
20,CCc1ccccc1OCCCNC(C)(C)C,1.5%
21,O=C1CC(N2CCN(C(c3ccccc3)c3ccccc3)CC2)C(=O)N1c1cccc(Br)c1 (stereo unspecified),-7.4%
22,O=S(=O)(Nc1cccc(-c2nc3cc(Cl)ccc3o2)c1)c1ccccc1,9.6%
23,C=CCNC(=O)Nc1ccc2nc(-c3ccccc3)c(-c3ccccc3)nc2c1,-0.4%
